The text below walks through data of the RNAGym collection of RNA variant scans (doi:10.1073/pnas.2313332121).

To fix the notation:
B1: TPR 5TU (parent)
chain: GGAUCUUCUCGAUCUAACAAAAAAGACAAAUCUGCCACAAAGCUUGAGAGCAUCUUCGGAUGCAGAGGCGGCAGCCUUCGGUGGCGCGAUAGCGCCAACGUUCUCAACUAUGACACGCAAAACGCGUGCUCCGUUGAAUGGAGUUUAUCAUG

Variants at the floor of the assay are shown more often than the library holds them.

The data set covers variants of B1. The experiment in a line: polymerase ribozyme fitness, log enrichment relative to wild type (log ratio); higher = more active; in vitro selection for triplet polymerase activity. In a few lines: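 A heterodimeric triplet polymerase ribozyme had each of its subunits mutagenized by PCR into a library, which was transcribed. One round of in vitro selection, done in triplicate, annealed each library with a biotinylated primer, its partner subunit and triplets, then incubated it frozen at −7 °C before gel excision of extended constructs, streptavidin-bead capture and RT-PCR. Fitness is the logarithm of genotype enrichment relative to wild-type enrichment, based on Illumina sequencing of inputs and outputs and inverse-variance-weighted replicate averages. A base-2 logarithm is used, and genotypes were kept only with ≥10 input reads and ≥1 read per output.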
As to U9C C10A A12U G50C A52C C85G G88A G152U, the “polymerase ribozyme fitness (log ratio)” value was not above -4.2.
The result for U9G A20C C35U G94U U148C reads not above -4.2; that for U9G C35A U53A C63G, not above -4.2.
Turning to C10A G25A G59C C87U A106G G141C C149G A150U, the “polymerase ribozyme fitness (log ratio)” value was not above -4.2.
C10A A22G A73U G84A C96U: the “polymerase ribozyme fitness (log ratio)” value was not above -4.2.
Consider U9A C10G A41U U61A C118G A122U G143A, for which the “polymerase ribozyme fitness (log ratio)” value was not above -4.2.
U9A A12G C43G G58C C93A G128U U145C U148A U151A: the “polymerase ribozyme fitness (log ratio)” value is not above -4.2.
The result for U9C A19U G50U C85A C108G reads not above -4.2; that for U9G A24G C35G A47C G68U C93G A142C U144G, not above -4.2; that for U9C A30C A39U U82G G88U C114U, not above -4.2.
The result for U9G A40G G50U G88C U139A reads not above -4.2.
U9G A60G G67C: the “polymerase ribozyme fitness (log ratio)” value is not above -4.2.
As for C8U C54U G59C C79G, the figure is not above -4.2.
As for C10A G83A A113C C116U, the figure is not above -4.2.
As for C8U C87A G88U C103A G117A, the figure is not above -4.2.
For the variant U9C A20C G58C C87A U144A, the “polymerase ribozyme fitness (log ratio)” value was not above -4.2.
As for C10A C27A C57U C87A, the figure is not above -4.2; as for C8U G59U G67C G74A U77G C93G C116A, not above -4.2.
The result for U9G C14G A37G C38U U45G U55A G86U C103G reads not above -4.2; that for U9G C18G A40C G48C U55A C72U C103G U127A, not above -4.2; that for U9G C32A A49U G83U, not above -4.2.
The result for C10A A29U C85U reads not above -4.2.
For C10A C18G A22C G42A G67A C87U, the “polymerase ribozyme fitness (log ratio)” value was not above -4.2.
As for C8U G81U G92C C116A G133C, the figure is not above -4.2; as for U9A A41U A142U, not above -4.2.
With U9C G11A C87U, the “polymerase ribozyme fitness (log ratio)” value was not above -4.2.
As for C8U G42C G68C A106C G141A U145A, the figure is not above -4.2.
The result for C10A A37G C57U G74U C76G G88A U148A reads not above -4.2; that for C8U G48A U55G G71A U78G G83C G86A A89U U135G G143A, not above -4.2; that for U9G A37U C95U U144C, not above -4.2.
As for C8U A23U A110G A138U U145G, the figure is not above -4.2.
For C8U A47U U56A G84A A91C C95U C105U A122U, the “polymerase ribozyme fitness (log ratio)” value was not above -4.2.
As for C10A C54U C57G G68C G86C C95G, the figure is not above -4.2.
Regarding U9A A21G A41G G74C U82C C96A C105U C131U G133U G141C, the “polymerase ribozyme fitness (log ratio)” value is not above -4.2.
For the variant U9A A23G A115U C123G G140C, the “polymerase ribozyme fitness (log ratio)” value was not above -4.2.
For U9A C27U A52C G88C A122C A137G, the “polymerase ribozyme fitness (log ratio)” value was not above -4.2.
For the variant U9G A49G A52U C79U C85A C96G U102A A115U U134A G143A, the “polymerase ribozyme fitness (log ratio)” value was not above -4.2.
Regarding C8U U31G U56A A119C G128C A138C U144G, the “polymerase ribozyme fitness (log ratio)” value is not above -4.2.
Take U9G C14U C57G C72A C87U: the “polymerase ribozyme fitness (log ratio)” value is not above -4.2.
The result for U9A U53A reads not above -4.2; that for C8U A24C G80C C93G, not above -4.2; that for U9A U53A C96A U104C G141A, not above -4.2.
The result for U9G U45G C63U U90C G92A U144A reads not above -4.2.
The result for C10A G46U C85A C99G G126C reads not above -4.2; that for C8U U13C C36A G50C C96A U101G, not above -4.2; that for U9C A52C A60C C85A G126U, not above -4.2.
Take C8U U9G A30U U53A C93U C116U: the “polymerase ribozyme fitness (log ratio)” value is not above -4.2.
As for C10A A21G G50A U55C G86A A119U U146A, the figure is not above -4.2.
The result for U9C A16C C54U U55G G58A reads not above -4.2; that for U9A A17U U55A G65U G70A G92U U102G A150C, not above -4.2; that for C8U C32U U56G C75G G80A C85A, not above -4.2.
As for C8U G80U C85A, the figure is not above -4.2; as for U9G A49U G59A A60U C75G C76G G86A G126U, not above -4.2; as for C10A A26G G59A C75U C116U C131A G143A A150C, not above -4.2.
For C8U C27U G46U C76U G92A A97G, the “polymerase ribozyme fitness (log ratio)” value was not above -4.2.
As for U9C A64C G84A A91U U148A, the figure is not above -4.2; as for C10A A40U C54A U55C U78A G83C C118U C123U C125A U148G, not above -4.2.
As for U9G A22U C35G G50U C95G C96U U135C, the figure is not above -4.2; as for U9G G67A C95U U102A A142U, not above -4.2.
As for U9G A29C, the figure is not above -4.2.
Regarding C10A A23U U33A G86A, the “polymerase ribozyme fitness (log ratio)” value is not above -4.2.
The result for C8U G50U G65A C72U G94A G141A reads not above -4.2; that for C10A A16U G58A G59U C69U C85A C93A, not above -4.2.
The result for U9G A24C C85U C105U G112U reads not above -4.2; that for C10A A19G A37U U55A G71A, not above -4.2.
The result for U9C A26C C85U A150U reads not above -4.2; that for U9G A91G G94C G143A, not above -4.2.
For C8U A21C A23C G80A U82G G86U A137G, the “polymerase ribozyme fitness (log ratio)” value was not above -4.2.
The result for U9G G42A U45C G50A C76G C87G A106C U111G reads not above -4.2.
As for U9C G11U G48C C79G U102G A120U G136U, the figure is not above -4.2; as for U9G C36U U146G, not above -4.2.
The result for U9G C14G A28U U45A A60U C75A C108G A138G reads not above -4.2; that for U9G C36A G70U A122U, not above -4.2.
U9A C85U A113U: the “polymerase ribozyme fitness (log ratio)” value was not above -4.2.
The result for U9C A64G C87A A115G C125A U148C C149G reads not above -4.2; that for C8U C35U G68A C85A C116U, not above -4.2; that for C10A A91G, not above -4.2.
As for C10A C51A G74C C76G C93G C108G A110U, the “polymerase ribozyme fitness (log ratio)” value is not above -4.2.
For the variant U9A C27G A73U C93U U102G C149G G152U, the “polymerase ribozyme fitness (log ratio)” value is not above -4.2.
As for U9G C36A C57U G59A G74A C85G U90A C95A C114U G136C, the figure is not above -4.2.
The result for U9A U44A G59A G81C reads not above -4.2; that for U9A C79A C87A C116U, not above -4.2.
As for U9A C72U G81A C95U, the figure is not above -4.2.
With C8U U15C A23U A26G C27U G70U G83A A142C, the “polymerase ribozyme fitness (log ratio)” value is not above -4.2.
